# Source: the supplement of paper PMC8728848
# The other results are listed elsewhere or left out.
# Key:
# Experiment in all cases: glycan array binding signal (z-score within array); higher = stronger binding
# Conditions in all cases: glycan notation: IUPAC condensed, linker removed
# [1] = biological target: Neu5Ac(a2-3)Gal(b1-4)GlcNAc(b1-3)Gal(b1-4)GlcNAc(b1-3)Gal(b1-4)GlcNAc
# In short: (§1)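 The Consortium for Functional Glycomics database supplied 3228 glycan arrays, of which those lacking an available protein sequence were dropped. The binding signal, a within-array Z-score, was averaged across arrays of the same protein sequence and across linkers. Negative scores can be read as non-binding.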
# [2] = biological target: Neu5Ac(a2-3)Gal(b1-4)GlcNAc(b1-3)Gal(b1-4)GlcNAc(b1-3)Gal(b1-4)GlcNAc(b1-2)Man(a1-3)[Neu5Ac(a2-3)Gal(b1-4)GlcNAc(b1-3)Gal(b1-4)GlcNAc(b1-3)Gal(b1-4)GlcNAc(b1-2)Man(a1-6)]GalNAc
# In short: as §1
# [3] = biological target: Neu5Ac(a2-3)Gal(b1-4)GlcNAc(b1-3)Gal(b1-4)GlcNAc(b1-3)GalNAc
# In short: as §1
# [4] = biological target: Neu5Ac(a2-3)Gal(b1-4)GlcNAc(b1-3)Gal(b1-4)GlcNAc(b1-3)[Neu5Ac(a2-3)Gal(b1-4)GlcNAc(b1-3)Gal(b1-4)GlcNAc(b1-6)]GalNAc
# In short: as §1
# [5] = biological target: Neu5Ac(a2-3)Gal(b1-4)GlcNAc(b1-3)Gal(b1-4)GlcNAc(b1-6)[Gal(b1-3)]GalNAc
# In short: as §1
# [6] = biological target: Neu5Ac(a2-3)Gal(b1-4)GlcNAc(b1-3)Gal(b1-4)[Fuc(a1-3)]GlcNAc
# In short: as §1
# [7] = biological target: Neu5Ac(a2-3)Gal(b1-4)GlcNAc(b1-3)GalNAc
# In short: as §1
# [8] = biological target: Neu5Ac(a2-3)Gal(b1-4)GlcNAc(b1-3)[Neu5Ac(a2-3)Gal(b1-4)GlcNAc(b1-6)]GalNAc
# In short: as §1
# [9] = biological target: Neu5Ac(a2-3)Gal(b1-4)GlcNAc(b1-6)GalNAc
# In short: as §1
# [10] = biological target: Neu5Ac(a2-3)Gal(b1-4)GlcNAc(b1-6)[Gal(b1-3)]GalNAc
# In short: as §1
# [11] = biological target: Neu5Ac(a2-3)Gal(b1-4)GlcNAc(b1-6)[Neu5Ac(a2-3)Gal(b1-3)]GalNAc
# In short: as §1
# [12] = biological target: Neu5Ac(a2-3)Gal(b1-4)GlcNAc6S
# In short: as §1
# [13] = biological target: Neu5Ac(a2-3)Gal(b1-4)[Fuc(a1-3)]GlcNAc
# In short: as §1
# [14] = biological target: Neu5Ac(a2-3)Gal(b1-4)[Fuc(a1-3)]GlcNAc(b1-2)Man
# In short: as §1
# [15] = biological target: Neu5Ac(a2-3)Gal(b1-4)[Fuc(a1-3)]GlcNAc(b1-3)Gal
# In short: as §1
# [16] = biological target: Neu5Ac(a2-3)Gal(b1-4)[Fuc(a1-3)]GlcNAc(b1-3)Gal(b1-4)GlcNAc
# In short: as §1
# [17] = biological target: Neu5Ac(a2-3)Gal(b1-4)[Fuc(a1-3)]GlcNAc(b1-3)Gal(b1-4)[Fuc(a1-3)]GlcNAc(b1-3)Gal(b1-4)[Fuc(a1-3)]GlcNAc
# In short: as §1
# [18] = biological target: Neu5Ac(a2-3)Gal(b1-4)[Fuc(a1-3)]GlcNAc(b1-3)GalNAc
# In short: as §1
# [19] = biological target: Neu5Ac(a2-3)Gal(b1-4)[Fuc(a1-3)]GlcNAc(b1-6)[Gal(b1-3)]GalNAc
# In short: as §1
# [20] = biological target: Neu5Ac(a2-3)Gal(b1-4)[Fuc(a1-3)]GlcNAc(b1-6)[Neu5Ac(a2-3)Gal(b1-3)]GalNAc
# In short: as §1
# [21] = biological target: Neu5Ac(a2-3)Gal(b1-4)[Fuc(a1-3)]GlcNAc6S
# In short: as §1
# [22] = biological target: Neu5Ac(a2-3)Gal6S(b1-4)GlcNAc
# In short: as §1
# [23] = biological target: Neu5Ac(a2-3)Gal6S(b1-4)[Fuc(a1-3)]GlcNAc
# In short: as §1
# [24] = biological target: Neu5Ac(a2-3)GalNAc
# In short: as §1
# [25] = biological target: Neu5Ac(a2-3)GalNAc(b1-4)GlcNAc
# In short: as §1
# [26] = biological target: Neu5Ac(a2-3)[GalNAc(b1-4)]Gal(b1-4)Glc
# In short: as §1
# [27] = biological target: Neu5Ac(a2-3)[GalNAc(b1-4)]Gal(b1-4)GlcNAc
# In short: as §1
# [28] = biological target: Neu5Ac(a2-3)[GalNAc(b1-4)]Gal(b1-4)GlcNAc(b1-3)GalNAc
# In short: as §1
# [29] = biological target: Neu5Ac(a2-3)[Neu5Ac(a2-6)]GalNAc
# In short: as §1
# [30] = biological target: Neu5Ac(a2-6)Gal
# In short: as §1
# [31] = biological target: Neu5Ac(a2-6)Gal(b1-3)GlcNAc(b1-3)[Gal(b1-4)GlcNAc(b1-6)]Gal(b1-4)Glc
# In short: as §1
# [32] = biological target: Neu5Ac(a2-6)Gal(b1-4)Glc
# In short: as §1
# [33] = biological target: Neu5Ac(a2-6)Gal(b1-4)GlcNAc
# In short: as §1
# [34] = biological target: Neu5Ac(a2-6)Gal(b1-4)GlcNAc(b1-2)Man
# In short: as §1
# [35] = biological target: Neu5Ac(a2-6)Gal(b1-4)GlcNAc(b1-2)Man(a1-3)Man(b1-4)GlcNAc(b1-4)GlcNAc
# In short: as §1
# [36] = biological target: Neu5Ac(a2-6)Gal(b1-4)GlcNAc(b1-2)Man(a1-3)[Gal(b1-4)GlcNAc(b1-2)Man(a1-6)]Man(b1-4)GlcNAc(b1-4)GlcNAc
# In short: as §1
# [37] = biological target: Neu5Ac(a2-6)Gal(b1-4)GlcNAc(b1-2)Man(a1-3)[GlcNAc(b1-2)Man(a1-6)]Man(b1-4)GlcNAc(b1-4)GlcNAc
# In short: as §1
# [38] = biological target: Neu5Ac(a2-6)Gal(b1-4)GlcNAc(b1-2)Man(a1-3)[GlcNAc(b1-4)][Neu5Ac(a2-6)Gal(b1-4)GlcNAc(b1-2)Man(a1-6)]Man(b1-4)GlcNAc(b1-4)GlcNAc
# In short: as §1
binder,measurement,setting,value
Cohesin-mDCIR (Macaca mulatta) (protein) GLDDLDAVRIKVDTVNAKPGDTVRIPVRFSGIPSKGIANCDFVYSYDPNVLEIIEIEPGDIIVDPNPDKSFDTAVYPDRKIIVFLFAEDSGTGAYAITKDGVFATIVAKVKEGAPNGLSVIKFVEVGGFANNDLVEQKTQFFDGGVNVGDTTEPATPTTPVTTPTTTDDLDAASFQKYSQLLEKMTTKDLVHTTLECVKKNMTTEETAWSCCPKNWKPFSSNCYFISTESASWQKSEKDCARMEAHLLVINTREEQDFIFQNLQEESAYFVGLSDPEGQRHWQWVDRTPYNESSTFWHPHEPSDPDERCVVLNFRKTPKRWGWNDVHCIVHQRSVCEMMKIHLHHHHHH,glycan array binding signal (z-score),[1],-0.241
same,glycan array binding signal (z-score),[2],-0.191
same,glycan array binding signal (z-score),[3],0.175
same,glycan array binding signal (z-score),[4],-0.333
same,glycan array binding signal (z-score),[5],-0.416
same,glycan array binding signal (z-score),[6],-0.47
same,glycan array binding signal (z-score),[7],-0.264
same,glycan array binding signal (z-score),[8],-0.458
same,glycan array binding signal (z-score),[9],1.08
same,glycan array binding signal (z-score),[10],-0.381
same,glycan array binding signal (z-score),[11],-0.475
same,glycan array binding signal (z-score),[12],-0.281
same,glycan array binding signal (z-score),[13],-0.35
same,glycan array binding signal (z-score),[14],-0.354
same,glycan array binding signal (z-score),[15],-0.387
same,glycan array binding signal (z-score),[16],-0.286
same,glycan array binding signal (z-score),[17],-0.409
same,glycan array binding signal (z-score),[18],-0.091
same,glycan array binding signal (z-score),[19],-0.232
same,glycan array binding signal (z-score),[20],-0.363
same,glycan array binding signal (z-score),[21],-0.425
same,glycan array binding signal (z-score),[22],-0.433
same,glycan array binding signal (z-score),[23],-0.246
same,glycan array binding signal (z-score),[24],-0.315
same,glycan array binding signal (z-score),[25],-0.325
same,glycan array binding signal (z-score),[26],0.257
same,glycan array binding signal (z-score),[27],-0.245
same,glycan array binding signal (z-score),[28],-0.353
same,glycan array binding signal (z-score),[29],-0.232
same,glycan array binding signal (z-score),[30],-0.425
same,glycan array binding signal (z-score),[31],0.28
same,glycan array binding signal (z-score),[32],-0.423
same,glycan array binding signal (z-score),[33],-0.311
same,glycan array binding signal (z-score),[34],-0.208
same,glycan array binding signal (z-score),[35],-0.373
same,glycan array binding signal (z-score),[36],-0.37
same,glycan array binding signal (z-score),[37],-0.463
same,glycan array binding signal (z-score),[38],-0.253
